Laboratory results reported in patent publication US20190275133A1 (NEKTAR THERAPEUTICS, published 2019).

Target: T1, human IL-2Rα-Fc fusion protein (human, UniProt P01589 22-240, limits assumed)
T1 construct: also called CD25; not shown: Fc portion
T1 sequence (looked up): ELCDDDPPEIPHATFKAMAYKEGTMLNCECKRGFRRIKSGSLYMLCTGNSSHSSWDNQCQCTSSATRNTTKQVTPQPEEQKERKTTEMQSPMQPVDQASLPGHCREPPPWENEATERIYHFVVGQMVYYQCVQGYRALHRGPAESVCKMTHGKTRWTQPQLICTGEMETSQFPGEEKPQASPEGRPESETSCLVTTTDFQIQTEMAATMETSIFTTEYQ
Assay: SPR (Biacore T-100), receptor-Fc captured on antihuman antibody, compared with aldesleukin

binding result: binds
B1: RSLAIL-2 (multiPEGylated recombinant human IL-2 with the aldesleukin sequence; composition of primarily 4-mers, 5-mers and 6-mers of releasably attached … (ligand)
chain: not shown
modifications: primarily 4, 5 or 6 branched 20 kD polyethylene glycol moieties (C2-PEG2-FMOC-20K) releasably covalently attached via carbamate; attachment residues not stated
notes: A mixture of PEGylated species, not one compound; also called long acting IL-2Rαβ-biased agonist; long acting IL-2Rβ-biased agonist
